Reference: a collection of fitness landscapes (doi:10.1126/science.1257360)
The list shows a part of the results.

B1: PhoQ; a variant is named by its letters at X, in order, P23837 (parent)
chain: MKKLLRLFFPLSLRVRFLLATAAVVLVLSLAYGMVALIGYSVSFDKTTFRLLRGESNLFYTLAKWENNKLHVELPENIDKQSPTMTLIYDENGQLLWAQRDVPWLMKMIQPDWLKSNGFHEIEADVNDTSLLLSGDHSIQQQLQEVREDDDDAEMTHSVAVNVYPATSRMPKLTIVVVDTIPVELKSSYMVWSWFIYVLSANLLLVIPLLWVAAWWSLRPIEALAKEVRELEEHNRELLNPATTRELTSLVRNLNRLLKSERERYDKYRTTLTDLTHSLKTPLXXLQXXLRSLRSEKMSVSDAEPVMLEQISRISQQIGYYLHRASMRGGTLLSRELHPVAPLLDNLTSALNKVYQRKGVNISLDISPEISFVGEQNDFVEVMGNVLDNACKYCLEFVEISARQTDEHLYIVVEDDGPGIPLSKREVIFDRGQRVDTLRPGQGVGLAVAREITEQYEGKIVAGESMLGGARMEVIFGRQHSAPKDE

Variants of: B1
Experiment: enrichment ratio after two sorts for PhoP signalling (ratio (wild type AVST 3.29)); higher = more functional
Conditions: with PhoP (E. coli)

KIWY and NWHI cannot be ordered by enrichment ratio: at most 0.25 for the first, at most 0.25 for the second.

First: FDAA
Second: AEYM
The enrichment ratio of the first is lower: at most 0.25 for the first, 3.72 for the second.

TRIN and VDLR cannot be ordered by enrichment ratio: at most 0.25 for the first, at most 0.25 for the second.

Going from TIMR to VRTR, the enrichment ratio falls from 3.56 to at most 0.25.

DGRE and IYSC cannot be ordered by enrichment ratio: at most 0.25 for the first, at most 0.25 for the second.

Going from VGDL to LLDF, the enrichment ratio falls from 1.06 to at most 0.25.

TLIC and PYCK cannot be ordered by enrichment ratio: at most 0.25 for the first, at most 0.25 for the second.

LPNT and NGAN cannot be ordered by enrichment ratio: at most 0.25 for the first, at most 0.25 for the second.

NMDK and PSQS cannot be ordered by enrichment ratio: at most 0.25 for the first, at most 0.25 for the second.

YHRT and QVYC cannot be ordered by enrichment ratio: at most 0.25 for the first, at most 0.25 for the second.

YETH and KHVT cannot be ordered by enrichment ratio: at most 0.25 for the first, at most 0.25 for the second.

PCRP and IEQW cannot be ordered by enrichment ratio: at most 0.25 for the first, at most 0.25 for the second.

VFNR and GREW cannot be ordered by enrichment ratio: at most 0.25 for the first, at most 0.25 for the second.

KNWP and SNPA cannot be ordered by enrichment ratio: at most 0.25 for the first, at most 0.25 for the second.

DKCL and DMYT cannot be ordered by enrichment ratio: at most 0.25 for the first, at most 0.25 for the second.

Going from SDKH to YTTL, the enrichment ratio rises from at most 0.25 to 3.18.

NYRL and RAHC cannot be ordered by enrichment ratio: at most 0.25 for the first, at most 0.25 for the second.

First: YINF
Second: YFLN
The enrichment ratio of the first is higher: 0.532 for the first, at most 0.25 for the second.

RMKC and IRHG cannot be ordered by enrichment ratio: at most 0.25 for the first, at most 0.25 for the second.

EKNM and TRIY cannot be ordered by enrichment ratio: at most 0.25 for the first, at most 0.25 for the second.

WVSI and VRIP cannot be ordered by enrichment ratio: at most 0.25 for the first, at most 0.25 for the second.

Compared with FRSE, DTTC is lower in enrichment ratio: 0.705 for the first, at most 0.25 for the second.

Compared with CTTS, GNMA is lower in enrichment ratio: 16.8 for the first, 1.57 for the second.

NTPA and HAKR cannot be ordered by enrichment ratio: at most 0.25 for the first, at most 0.25 for the second.

KAAM and AWYG cannot be ordered by enrichment ratio: at most 0.25 for the first, at most 0.25 for the second.

FRRG and RQFR cannot be ordered by enrichment ratio: at most 0.25 for the first, at most 0.25 for the second.

RRNA and MYYG cannot be ordered by enrichment ratio: at most 0.25 for the first, at most 0.25 for the second.

FIMH and IEAC cannot be ordered by enrichment ratio: at most 0.25 for the first, at most 0.25 for the second.

SYWI and RSET cannot be ordered by enrichment ratio: at most 0.25 for the first, at most 0.25 for the second.

YVPY and HADF cannot be ordered by enrichment ratio: at most 0.25 for the first, at most 0.25 for the second.

Going from ECHY to MSSY, the enrichment ratio rises from at most 0.25 to 2.56.

VDFS and RLNQ cannot be ordered by enrichment ratio: at most 0.25 for the first, at most 0.25 for the second.

NSLN and IMNY cannot be ordered by enrichment ratio: at most 0.25 for the first, at most 0.25 for the second.

VWAI and WHRL cannot be ordered by enrichment ratio: at most 0.25 for the first, at most 0.25 for the second.

Going from FDCM to VQLG, the enrichment ratio rises from at most 0.25 to 0.851.

VPTA and QHFA cannot be ordered by enrichment ratio: at most 0.25 for the first, at most 0.25 for the second.

EMST and FRDC cannot be ordered by enrichment ratio: at most 0.25 for the first, at most 0.25 for the second.

PLVP and LHMW cannot be ordered by enrichment ratio: at most 0.25 for the first, at most 0.25 for the second.

YKHD and YWWI cannot be ordered by enrichment ratio: at most 0.25 for the first, at most 0.25 for the second.

Compared with AQGG, HYYW is lower in enrichment ratio: 6.04 for the first, at most 0.25 for the second.

DQFE and NHAG cannot be ordered by enrichment ratio: at most 0.25 for the first, at most 0.25 for the second.

MFRR and VRFW cannot be ordered by enrichment ratio: at most 0.25 for the first, at most 0.25 for the second.

GWVT and DYWV cannot be ordered by enrichment ratio: at most 0.25 for the first, at most 0.25 for the second.

DHKF and KFNE cannot be ordered by enrichment ratio: at most 0.25 for the first, at most 0.25 for the second.

IFLG and MMFM cannot be ordered by enrichment ratio: at most 0.25 for the first, at most 0.25 for the second.

Going from MEIM to PSKV, the enrichment ratio falls from 48.5 to at most 0.25.

Going from KLVA to MECS, the enrichment ratio rises from at most 0.25 to 11.2.

DSMK and YQAI cannot be ordered by enrichment ratio: at most 0.25 for the first, at most 0.25 for the second.

Going from SQIQ to FEEH, the enrichment ratio falls from 10.4 to at most 0.25.

FFQN and QAAH cannot be ordered by enrichment ratio: at most 0.25 for the first, at most 0.25 for the second.

LDMV and SIHA cannot be ordered by enrichment ratio: at most 0.25 for the first, at most 0.25 for the second.

Compared with MKQL, FSMN is higher in enrichment ratio: at most 0.25 for the first, 1.56 for the second.

YIWI and FVES cannot be ordered by enrichment ratio: at most 0.25 for the first, at most 0.25 for the second.

Compared with RCMH, INYE is lower in enrichment ratio: 2.03 for the first, at most 0.25 for the second.

IHMN and PIIG cannot be ordered by enrichment ratio: at most 0.25 for the first, at most 0.25 for the second.

YSFR and MNRM cannot be ordered by enrichment ratio: at most 0.25 for the first, at most 0.25 for the second.

NLHW and RPIL cannot be ordered by enrichment ratio: at most 0.25 for the first, at most 0.25 for the second.

NMKK and HCLR cannot be ordered by enrichment ratio: at most 0.25 for the first, at most 0.25 for the second.

LAQK and YVSL cannot be ordered by enrichment ratio: at most 0.25 for the first, at most 0.25 for the second.

FNTN and QNCI cannot be ordered by enrichment ratio: at most 0.25 for the first, at most 0.25 for the second.

FQDY and QPKY cannot be ordered by enrichment ratio: at most 0.25 for the first, at most 0.25 for the second.

Compared with ANKQ, SKVT is higher in enrichment ratio: at most 0.25 for the first, 3.24 for the second.

FIND and FRAS cannot be ordered by enrichment ratio: at most 0.25 for the first, at most 0.25 for the second.

MNVH and EENL cannot be ordered by enrichment ratio: at most 0.25 for the first, at most 0.25 for the second.

VPEH and AHWL cannot be ordered by enrichment ratio: at most 0.25 for the first, at most 0.25 for the second.

HRDL and DPIT cannot be ordered by enrichment ratio: at most 0.25 for the first, at most 0.25 for the second.

DWWM and EALA cannot be ordered by enrichment ratio: at most 0.25 for the first, at most 0.25 for the second.

Going from EANM to YQMD, the enrichment ratio rises from at most 0.25 to 0.351.

VVHD and IGEK cannot be ordered by enrichment ratio: at most 0.25 for the first, at most 0.25 for the second.

VKNT and GPMV cannot be ordered by enrichment ratio: at most 0.25 for the first, at most 0.25 for the second.

LCMH and DEYN cannot be ordered by enrichment ratio: at most 0.25 for the first, at most 0.25 for the second.

IGTQ and MDHG cannot be ordered by enrichment ratio: at most 0.25 for the first, at most 0.25 for the second.

VCMY and GKRA cannot be ordered by enrichment ratio: at most 0.25 for the first, at most 0.25 for the second.

FNHF and DFGL cannot be ordered by enrichment ratio: at most 0.25 for the first, at most 0.25 for the second.

GARI and QCPI cannot be ordered by enrichment ratio: at most 0.25 for the first, at most 0.25 for the second.

PCCG and PKGW cannot be ordered by enrichment ratio: at most 0.25 for the first, at most 0.25 for the second.

THVL and PGMP cannot be ordered by enrichment ratio: at most 0.25 for the first, at most 0.25 for the second.

ERYT and KEWE cannot be ordered by enrichment ratio: at most 0.25 for the first, at most 0.25 for the second.

First: WCDP
Second: WMHV
The enrichment ratio of the first is higher: 0.342 for the first, at most 0.25 for the second.

Going from FNEQ to TMEV, the enrichment ratio rises from at most 0.25 to 25.

FHKH and VYIP cannot be ordered by enrichment ratio: at most 0.25 for the first, at most 0.25 for the second.

MMIP and FRSD cannot be ordered by enrichment ratio: at most 0.25 for the first, at most 0.25 for the second.

KSWD and EAFP cannot be ordered by enrichment ratio: at most 0.25 for the first, at most 0.25 for the second.

YLEL and HYSQ cannot be ordered by enrichment ratio: at most 0.25 for the first, at most 0.25 for the second.

HEIY and VPPF cannot be ordered by enrichment ratio: at most 0.25 for the first, at most 0.25 for the second.

KLGC and NKVI cannot be ordered by enrichment ratio: at most 0.25 for the first, at most 0.25 for the second.

LADI and CMVH cannot be ordered by enrichment ratio: at most 0.25 for the first, at most 0.25 for the second.

IMIT and MFDH cannot be ordered by enrichment ratio: at most 0.25 for the first, at most 0.25 for the second.

TNSR and IVMQ cannot be ordered by enrichment ratio: at most 0.25 for the first, at most 0.25 for the second.

LQDG and QMIV cannot be ordered by enrichment ratio: at most 0.25 for the first, at most 0.25 for the second.

HDPL and INTT cannot be ordered by enrichment ratio: at most 0.25 for the first, at most 0.25 for the second.

VRGI and NISR cannot be ordered by enrichment ratio: at most 0.25 for the first, at most 0.25 for the second.

GQDN and GFHL cannot be ordered by enrichment ratio: at most 0.25 for the first, at most 0.25 for the second.

YWLH and WILK cannot be ordered by enrichment ratio: at most 0.25 for the first, at most 0.25 for the second.

KHFG and YSSE cannot be ordered by enrichment ratio: at most 0.25 for the first, at most 0.25 for the second.

LKMK and GSNK cannot be ordered by enrichment ratio: at most 0.25 for the first, at most 0.25 for the second.

LCVF and WPHA cannot be ordered by enrichment ratio: at most 0.25 for the first, at most 0.25 for the second.

LDAE was tested, and the enrichment ratio was at most 0.25.
